Broadly, the cell viability is a read-out of living cells in per cent, often relative to untreated cells.

For 29 sequences, cell viability results are on record in the supplement of paper PMC6206098.

± gives the uncertainty stated by the source. The sequences are guide strands of siRNAs; only the seed at positions 2 to 7 varies.

The subject of data set [1] is 3LL. Kind of data set: cell viability relative to siNT1 control; higher = less toxic. As to conditions: concentration: 10 nM; 96 h; Mus musculus.
The test system of data set [2] is HeyA8. Kind of data set: cell viability relative to lipid-only control; HeyA8 human ovarian and H460 human lung cancer; M565 mouse liver and 3LL mouse lung cancer; siNT1 is a non-toxic control siRNA; higher = less toxic. As to conditions: concentration: 10 nM; 96 h; Homo sapiens. On the procedure: (§1)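 Arrayed screen of 4096 siRNA duplexes, each carrying one of all possible 6mer seeds at guide-strand positions 2-7 in a fixed neutral 19mer scaffold (constant flanks: U at position 1, then ACAUGUAAACCA, plus a 3' AA overhang). The passenger strand is 2'-O-methylated at positions 1-2 so only the guide strand loads into RISC. Duplexes were reverse-transfected at 10 nM with RNAiMAX in triplicate in 384-well plates; viability was read by CellTiter-Glo ATP content 96 h after transfection. Values are % viability normalised to lipid-only wells (HeyA8, H460, M565) or to siNT1 (3LL).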

Data set [3] deals with H460. The data set is described as above. Particulars: concentration: 10 nM; 96 h; Homo sapiens. On the procedure: as §1
For data set [4], the system named is M565. The description is as above. Particulars: concentration: 10 nM; 96 h; Mus musculus. On the procedure:
as §1
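For cell viability relative to siNT1 control in this document: Luminescence-based viability of cells reverse transfected in 384-well plates with lipid-complexed siRNAs built on a non-toxic 19mer backbone whose passenger strand carries 2′-O-methyl groups at positions 1 and 2, triplicates.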

Regarding UUGCAGUACAUGUAAACCAAA, the cell viability amounted to 43.4 ± 8.3% in data set [1], 69.5 ± 5.2% in data set [2], 58.9 ± 6.8% in data set [3] and 95.5 ± 23% in data set [4].
For UAUGGGGACAUGUAAACCAAA, the cell viability worked out at 96.9 ± 3.8% in data set [1], 57.7 ± 3.1% in data set [2], 58.3 ± 5.7% in data set [3] and 75.9 ± 16% in data set [4].
For UGGUCCAACAUGUAAACCAAA, the cell viability in data set [1] came to 68.1 ± 5.5%; in data set [2], 22.9 ± 3.2%; in data set [3], 23 ± 3%; in data set [4] it was 22.2 ± 2.9%.
UGUUAGUACAUGUAAACCAAA: the cell viability in data set [1] was 15 ± 5.1%; in data set [2] it was 47.6 ± 11%; in data set [3] it was 57.4 ± 6.7%; in data set [4], 62.5 ± 13%.
Turning to UAAAUUGACAUGUAAACCAAA, the cell viability in data set [1] is 118 ± 16%; in data set [2] it was 101 ± 4.3%; in data set [3] it was 76 ± 9.3%; in data set [4], 97.3 ± 17%.
As to UUGGCAAACAUGUAAACCAAA, the cell viability was 66.7 ± 7.5% in data set [1], 87.2 ± 4.5% in data set [2], 91.2 ± 5.1% in data set [3] and 64.3 ± 5.6% in data set [4].
For the sequence UCCAAGCACAUGUAAACCAAA, the cell viability came to 5.39 ± 0.96% in data set [1], 17.8 ± 0.77% in data set [2], 31.3 ± 0.96% in data set [3] and 6.36 ± 0.83% in data set [4].
As for UCGAUGAACAUGUAAACCAAA, the cell viability in data set [1] is 86.8 ± 18%; in data set [2], 85.3 ± 1%; in data set [3] it was 53.7 ± 5.1%; in data set [4], 63.4 ± 3.1%.
For UGGGUAUACAUGUAAACCAAA, the cell viability was 54.8 ± 9.3% in data set [1], 24.5 ± 3% in data set [2], 37.6 ± 3.8% in data set [3] and 29 ± 4.4% in data set [4].
With UUCUGACACAUGUAAACCAAA, the cell viability in data set [1] is 21.2 ± 3.6%; in data set [2], 51.1 ± 3.2%; in data set [3], 43.1 ± 7.6%; in data set [4], 12.4 ± 1.9%.
As to UUCGCUCACAUGUAAACCAAA, the cell viability in data set [1] is 62.2 ± 17%; in data set [2], 61.6 ± 10%; in data set [3], 66 ± 4%; in data set [4], 77.6 ± 17%.
Turning to UCCAAUGACAUGUAAACCAAA, the cell viability was determined as 97.7 ± 30% in data set [1], 66.4 ± 7.7% in data set [2], 60.1 ± 4.3% in data set [3] and 47.1 ± 11% in data set [4].
For the sequence UAGUUUGACAUGUAAACCAAA, the cell viability is 78.6 ± 13% in data set [1], 67.4 ± 2.3% in data set [2], 66 ± 6.7% in data set [3] and 57.2 ± 4% in data set [4].
With UAGUCUUACAUGUAAACCAAA, the cell viability is 34.5 ± 5.9% in data set [1], 69.9 ± 6.8% in data set [2], 89.8 ± 12% in data set [3] and 18.8 ± 2.4% in data set [4].
Regarding UGCAGCAACAUGUAAACCAAA, the cell viability in data set [1] is 43 ± 7.8%; in data set [2] it was 71.7 ± 7.1%; in data set [3], 67.8 ± 7.5%; in data set [4], 47 ± 1%.
The corresponding values for UUCUCGCACAUGUAAACCAAA are 50.1 ± 2.6%, 67.3 ± 12%, 47.7 ± 3.4% and 50.5 ± 1.6%.
Regarding UCAUUUAACAUGUAAACCAAA, the cell viability was 89.4 ± 16% in data set [1], 68.4 ± 2.9% in data set [2], 47 ± 4.8% in data set [3] and 63.7 ± 9.5% in data set [4].
The corresponding values for UCCUAGCACAUGUAAACCAAA are 31.5 ± 6.2%, 21.1 ± 1%, 26.7 ± 1.3% and 24.8 ± 1%.
For UCGCCAGACAUGUAAACCAAA, the cell viability turned out to be 81.5 ± 15% in data set [1], 81.6 ± 7.3% in data set [2], 76.3 ± 13% in data set [3] and 62.8 ± 5.3% in data set [4].
Taken in the same sequence, the figures for UAGGUUCACAUGUAAACCAAA were 21.1 ± 3.4%, 12.3 ± 1.8%, 71 ± 24% and 32.4 ± 6.4%.
UAACGCCACAUGUAAACCAAA: the cell viability in data set [1] is 66.1 ± 6.8%; in data set [2], 82.1 ± 7.1%; in data set [3], 62.5 ± 2.2%; in data set [4] it was 85.8 ± 8.4%.
Taken in the same sequence, the figures for UGCGUAGACAUGUAAACCAAA were 85.8 ± 9.3%, 88.4 ± 9.3%, 76.8 ± 7.6% and 60.38 ± 0.42%.
Consider UUGAGCAACAUGUAAACCAAA, for which the cell viability came out at 76.4 ± 1.5% in data set [1], 92.6 ± 10% in data set [2], 67 ± 3.4% in data set [3] and 44.5 ± 6.7% in data set [4].
UGAUGGCACAUGUAAACCAAA: the cell viability in data set [1] turned out to be 33.1 ± 4.6%; in data set [2], 4.2 ± 0.36%; in data set [3] it was 18.9 ± 1.4%; in data set [4], 21.7 ± 4.9%.
Take UCCUUGUACAUGUAAACCAAA: the cell viability came to 48.5 ± 7.4% in data set [1], 41.5 ± 5.9% in data set [2], 84.9 ± 6.9% in data set [3] and 77.7 ± 12% in data set [4].
Taken in the same sequence, the figures for UAAAAUAACAUGUAAACCAAA were 121 ± 18%, 102 ± 6.8%, 70.5 ± 5.2% and 75.7 ± 6.5%.
For UGACGUAACAUGUAAACCAAA, the cell viability in data set [1] worked out at 89.1 ± 4.4%; in data set [2], 102 ± 4.5%; in data set [3], 66.4 ± 4%; in data set [4], 55.9 ± 11%.
On to UUGCGAGACAUGUAAACCAAA, for which the cell viability was found to be 60.1 ± 9.5% in data set [1], 97.1 ± 7.4% in data set [2], 94.7 ± 12% in data set [3] and 62.4 ± 11% in data set [4].
For UUAUUUAACAUGUAAACCAAA, the cell viability in data set [1] worked out at 95.2 ± 3.6%; in data set [2], 97.1 ± 1.4%; in data set [3], 68.1 ± 4.9%; in data set [4], 111 ± 7%.
